In ChEMBL document CHEMBL4888484, “Replenishing the malaria drug discovery pipeline: Screening and hit evaluation of the MMV Hit Generation Library 1 (HGL1) against asexual blood stage Plasmodium falciparum ,using a nano luciferase reporter read-out” (2022):
In all, about 150,000 compounds went through this assay and about 540 (0.36%) showed an effect of 50% or more. This is one part of the list.

Test system: Plasmodium falciparum
Experiment: Primary screen in NF54 nanoGlo assay, in single point, at 2uM, 72h; a lower Z score goes with more inhibition
Assay type: functional, Erythrocyte
Settings: timepoint 72 hour

Compound | % Inhibition [%] | Z score
CCS(=O)(=O)N1CCCc2cc(C(=O)N3CCOCC3)ccc21 | 15 | -1.71
COc1cncc(C(NC(=O)c2sccc2N)[C@H]2C[C@H](O)C2)c1 (stereo not given in full) | -1 | 0.13
CC(=O)Nc1cc(Cl)c(Cl)cc1N | 0 | -0.05
COc1ccc(C2C(C(=O)O)c3ccccc3C(=O)N2C2CCCCC2)cc1 (stereo not given) | 36 | -4.59
COCCc1cccc(-c2ccns2)c1 | -5 | 0.73
c1cc(-n2cnnn2)ccc1NCc1nnc(C2CC2)o1 | -7 | 1.22
C[C@H](NC(=O)OC(C)(C)C)c1ccc(C(=O)O)cc1 | -5 | 0.97
Cc1nc[nH]c1CN(C)CCC[C@H]1CCCO1 | -1 | 0.21
CC(C)CC(=O)N1CCC2(CC1)N[C@@H](Cc1ccccc1)C(=O)N2CCc1ccccn1 | -13 | 1.76
Cc1ccc(C(=O)NC2(CN3CCOCC3)CCCC2)n1C | -3 | 0.63
CN1C(=O)[C@@H](c2ccccc2)CC12CCN(C(=O)c1cccc(O)c1)CC2 | 6 | -0.96
Cc1cc(CNC(=O)N2CC[C@H](Cc3ccncc3)C2)ccc1F | -2 | 0.39
Cn1c(CN2CCO[C@H](C(N)=O)C2)cc2ccccc21 | -16 | 1.97
c1ccc2oc(N3CCOC[C@H](Oc4cnccn4)C3)nc2c1 | 11 | -1.29
Cc1cccc(CC(=O)N(CCC#N)C2CCOCC2)c1 | 1 | -0.14
O=C(C(Cc1ccccc1)N1C(=O)C2C3CCC(C3)C2C1=O)N1CCOCC1 (stereo not given) | 6 | -0.67
CN(Cc1cccnc1)Cc1cccc2nonc12 | -4 | 0.49
CC(C)(C)OC(=O)N1CCOc2ccc(NC(=O)Cn3ncn4nccc4c3=O)cc2C1 | -2 | 0.35
CC1=NNC(=O)C1CCNC(=O)c1ccc(OC2CC2(F)F)cc1 (stereo not given) | 7 | -0.89
O=c1ccn(Cc2cc(Cl)cc3c2OCOC3)c2ccsc12 | -6 | 0.6
CC1(C)C[C@@H]2C[C@@](C)(CN2C(=O)Nc2cccnc2O)C1 | -8 | 1.47
O=C(NCc1nccn1CCCc1ccccc1)[C@@H]1COCCO1 | 30 | -3.04
Cc1nc([C@@H]2CCCN2S(=O)(=O)CCC2CCCCC2)[nH]c1C | -16 | 2.98
Cc1cc2n(n1)CCCN(C(=O)c1cc(=O)[nH]c3ccccc13)C2 | -7 | 1.23
O=C1c2ccccc2C(=O)N1Cc1nc(-c2cccnc2)no1 | -9 | 1.34
CCOC(=O)CC1(S(=O)(=O)c2ccc(F)cc2)CCN(C[C@H]2CCOC2)CC1 | 1 | -0.23
C/C=C(\C)CN1CC[C@H](CNC(=O)c2ccc3c(c2)OCCO3)C1 | -8 | 1.61
CC(C)c1noc(N2CCC[C@H](CN(C)S(C)(=O)=O)C2)n1 | 0 | -0.04

Compound | % Inhibition [%] | Z score
NC(=O)[C@@H]1CCCN1C(=O)CC1CS(=O)(=O)c2ccccc2O1 (stereo not given in full) | -4 | 0.83
Cn1ccc2ccc(NCC(=O)N3CCOCC3)cc2c1=O | 2 | -0.25
COc1cccc(C(=O)NCC2=CCN([C@@H]3C=CCCC3)CC2)c1 | -15 | 2.19
CN1CCc2ncnc(N3CCN(c4nccs4)CC3)c2C1 | -7 | 1.06
Cc1ccc(C)c(N2CCN(S(=O)(=O)c3cc(C(=O)N4CCCCCC4)cs3)CC2)c1 | -7 | 1.2
Cc1cnc(-c2ccc(C(C)(C)C)cc2)nc1N | -1 | 0.11
CO[C@H]1CN(C)C[C@@H]1NS(=O)(=O)c1cc(C)sc1C | -2 | 0.19
COCCN1CCC[C@@]2(CCN(Cc3c(F)cccc3Cl)C2)C1 | -9 | 1.07
CN=C(NCc1ccccn1)N[C@@H](C)CCc1ccccc1 | -4 | 0.37
Cc1cc(Cl)ccc1CNC[C@]1(O)CCS(=O)(=O)C1 | -5 | 1.04
O=C(C[C@H](c1c[nH]c2ccccc12)C1CCCCC1)NCCN1CCOCC1 | -13 | 2.39
O=C(NOCc1ccccc1)N1CCN(Cc2ccncc2)CC1 | -10 | 2.07
Cc1cc(C)cc(NC(=O)Nc2cc3c(cc2N2CCCC2)n(C)c(=O)n3C)c1 | 0 | -0.04
C=CCN(C)C(=O)NCc1ccc(Br)c(F)c1 | 2 | -0.18
O=C(NCC1(c2cccs2)CCCCC1)c1snc(O)c1Cl | -14 | 2.04
O=C1NCCCc2[nH]c(-c3nc(-c4ccccc4)cs3)nc21 | -14 | 1.37
O=C(NCc1nnc2n1CC[C@H](C(F)(F)F)C2)c1cc(Cl)sc1Cl | -18 | 2.26
Cc1ocnc1C(=O)N1CCC[C@@]2(CCC(=O)N(CCc3c[nH]cn3)C2)C1 | 2 | -0.25
CC(C)c1cc(C(=O)NCc2snnc2C(C)C)nc(N)n1 | -16 | 1.8
Cn1nc([C@@H]2CCCCN2S(=O)(=O)c2ccc(F)cc2)c2c1CCOC2 | -13 | 1.28
CNC(=O)c1nn[nH]c1NS(=O)(=O)c1ccc(C)cc1C | -14 | 1.94
COc1ccc(-c2nc(C)c(C(=O)N(C)c3cn[nH]c3)s2)cc1OC | -1 | 0.21
COCc1ncc(C)n1CC1CN(C(=O)CCc2ccccc2)C1 | -10 | 1.37
CCc1[nH]ncc1C(=O)N1CC(Cc2ccc(F)c(F)c2)C1 | -26 | 2.64
N#Cc1ccc(O)c(NC(=O)c2[nH]nc3c2CCCC3)c1 | -10 | 1.44
Clc1cccc(N2CCN(Cn3nccc3-c3cccnc3)CC2)c1 | 1 | -0.12
CC(C)(O)CN1CCN(C(=O)CCCc2ccccn2)CC1 | -8 | 1.22
